In PMC4336329 (PLoS ONE, 2015):
About 14,000 (4.5%) of roughly 310,000 compounds showed an effect of 50% or more. Effects have a minus sign here. This is one part of the list.

Target: human ether-à-go-go-related gene (hERG) potassium channel (human, UniProt Q12809)
Assay: primary screen, population patch clamp on CHO cells stably expressing hERG
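Further: peak tail current of the secondary pulse compared with the same well before compound.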

Sequence of human ether-à-go-go-related gene (hERG) potassium channel (Q12809 whole entry, looked up): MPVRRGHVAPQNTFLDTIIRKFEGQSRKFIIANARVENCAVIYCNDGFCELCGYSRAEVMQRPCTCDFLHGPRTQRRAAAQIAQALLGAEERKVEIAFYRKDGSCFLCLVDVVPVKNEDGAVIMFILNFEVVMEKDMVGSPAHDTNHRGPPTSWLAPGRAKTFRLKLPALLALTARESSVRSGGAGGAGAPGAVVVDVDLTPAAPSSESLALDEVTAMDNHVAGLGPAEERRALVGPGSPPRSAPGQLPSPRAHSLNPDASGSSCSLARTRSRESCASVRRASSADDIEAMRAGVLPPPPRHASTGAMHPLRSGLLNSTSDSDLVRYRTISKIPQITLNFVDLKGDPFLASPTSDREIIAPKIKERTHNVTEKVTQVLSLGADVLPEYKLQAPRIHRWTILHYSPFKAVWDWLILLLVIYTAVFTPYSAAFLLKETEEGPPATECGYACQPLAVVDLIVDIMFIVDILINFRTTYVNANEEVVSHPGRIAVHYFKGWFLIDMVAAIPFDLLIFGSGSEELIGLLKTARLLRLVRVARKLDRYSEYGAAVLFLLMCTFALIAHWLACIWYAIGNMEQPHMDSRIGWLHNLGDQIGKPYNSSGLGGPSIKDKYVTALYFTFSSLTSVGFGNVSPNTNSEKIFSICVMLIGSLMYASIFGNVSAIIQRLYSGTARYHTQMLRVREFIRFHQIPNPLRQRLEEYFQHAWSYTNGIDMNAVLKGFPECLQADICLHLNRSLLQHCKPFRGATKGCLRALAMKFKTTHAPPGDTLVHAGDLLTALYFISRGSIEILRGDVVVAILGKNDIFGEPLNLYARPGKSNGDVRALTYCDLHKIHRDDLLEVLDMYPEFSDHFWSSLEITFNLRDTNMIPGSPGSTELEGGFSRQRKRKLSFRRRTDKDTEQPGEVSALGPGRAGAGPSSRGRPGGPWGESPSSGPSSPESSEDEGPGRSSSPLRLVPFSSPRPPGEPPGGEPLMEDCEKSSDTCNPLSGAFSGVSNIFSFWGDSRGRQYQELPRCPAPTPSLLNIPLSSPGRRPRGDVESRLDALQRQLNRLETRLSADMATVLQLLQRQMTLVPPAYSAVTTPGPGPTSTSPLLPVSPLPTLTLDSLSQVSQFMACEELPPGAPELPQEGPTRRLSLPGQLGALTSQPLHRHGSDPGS

Question: For `CC(C)(C)c1ccc(OC(=O)c2ccccc2)cc1`, which “hERG current change (%, negative = inhibition) at 10uM” value is on record?
Answer: 24.7%

Question: `Cl.O=C(NCC(c1cccs1)N1CCOCC1)c1ccc(Cl)s1` (centres unmarked) was tested. Which “hERG current change (%, negative = inhibition) at 10uM” value did it give?
Answer: -21.6%

Question: `CCOC(=O)CNc1c(-c2ccc(Cl)cc2)nc2cnccn12` was tested. Which “hERG current change (%, negative = inhibition) at 10uM” value did it give?
Answer: -48%

Question: `CCO/N=C/C(=O)Nc1ccc(F)cc1F` was tested. Which “hERG current change (%, negative = inhibition) at 10uM” value did it give?
Answer: 12.1%

Question: How did the “hERG current change (%, negative = inhibition) at 10uM” value turn out when `CC(=O)c1cc(CN2CCN(Cc3ccc(C)cc3)C(CCO)C2)cs1` (centres unmarked) was run?
Answer: -55%

Question: Which “hERG current change (%, negative = inhibition) at 10uM” value does the source give for `COc1ccccc1C(=O)NCC(=O)N/N=C/c1cccc(Cl)c1` here?
Answer: -1.56%

Question: How did the “hERG current change (%, negative = inhibition) at 10uM” value turn out when `C=CC[n+]1c(/C=C2\C=Cc3cc(C)ccc3N2CC)ccc2ccccc21.[Br-]` was run?
Answer: -83.5%

Question: For `CCC12CC3CC(C1)CC(C(=O)NNC(N)=O)(C3)C2`, which “hERG current change (%, negative = inhibition) at 10uM” value is on record?
Answer: 9.38%

Question: `CCCCc1c(C)nn(-c2nnc3c4ccccc4n(CC)c3n2)c1C` was tested. Which “hERG current change (%, negative = inhibition) at 10uM” value did it give?
Answer: 5.88%

Question: For `Cc1ccnc(Nc2nc(-c3c(C)nc4sccn34)cs2)c1`, which “hERG current change (%, negative = inhibition) at 10uM” value is on record?
Answer: -13.9%

Question: How did the “hERG current change (%, negative = inhibition) at 10uM” value turn out when `CC1=C(C)CC(C(=O)c2ccccc2)C(C(=O)O)C1` (centres unmarked) was run?
Answer: 11.5%

Question: With `CCn1c(SCC(=O)Nc2cccc(C)c2)nc2ccccc2c1=O` as the molecule, how does the “hERG current change (%, negative = inhibition) at 10uM” value read?
Answer: -26.3%

Question: How did the “hERG current change (%, negative = inhibition) at 10uM” value turn out when `COc1ccc(Cn2c(=O)[nH]c3cc(C(=O)Nc4ccc(N5CCN(C)CC5)cc4)ccc32)cc1` was run?
Answer: 14.6%

Question: For `Cc1cc(C)cc(NC(=O)CCC(=O)Nc2nnc(C(F)(F)F)s2)c1`, which “hERG current change (%, negative = inhibition) at 10uM” value is on record?
Answer: 5.51%

Question: With `Cc1cc(C)nc(NS(=O)(=O)c2ccc(NC(=S)NC(=O)c3ccco3)cc2)n1` as the molecule, how does the “hERG current change (%, negative = inhibition) at 10uM” value read?
Answer: -7.2%

Question: Which “hERG current change (%, negative = inhibition) at 10uM” value does the source give for `c1ccc(Cc2nc(-c3ccccn3)no2)cc1` here?
Answer: -0.706%

Question: How did the “hERG current change (%, negative = inhibition) at 10uM” value turn out when `Nc1nc2c(ccc3ccccc32)s1` was run?
Answer: 3.14%

Question: For `COc1ccc(NC(=O)CNc2cc(S(=O)(=O)N3CCOCC3)ccc2NCC2CCCO2)cc1` (centres unmarked), which “hERG current change (%, negative = inhibition) at 10uM” value is on record?
Answer: -18.3%

Question: With `CC1(C)C(=O)OC(c2cccs2)C(C)(C)C1=O` (centres unmarked) as the molecule, how does the “hERG current change (%, negative = inhibition) at 10uM” value read?
Answer: 5.77%

Question: `O=c1c2ccccc2nc2n1C(CBr)CN2` (centres unmarked) was tested. Which “hERG current change (%, negative = inhibition) at 10uM” value did it give?
Answer: 2.18%

Question: How did the “hERG current change (%, negative = inhibition) at 10uM” value turn out when `Cc1ccc2c(c1)N(CC(=O)Nc1ccccc1F)C(=O)CO2` was run?
Answer: 19.9%

Question: With `O=C(CC1CS(=O)(=O)CC1CC(=O)Nc1ccc2c(c1)OCCO2)Nc1ccc2c(c1)OCCO2` (centres unmarked) as the molecule, how does the “hERG current change (%, negative = inhibition) at 10uM” value read?
Answer: 0.0574%

Question: For `COc1cc2ccccc2cc1C(=O)N/N=C/c1cccnc1`, which “hERG current change (%, negative = inhibition) at 10uM” value is on record?
Answer: -25.9%

Question: With `Cc1ccc(C(=O)OCC(=O)NCCNC(=O)COC(=O)c2ccc(C)s2)s1` as the molecule, how does the “hERG current change (%, negative = inhibition) at 10uM” value read?
Answer: 2.13%

Question: How did the “hERG current change (%, negative = inhibition) at 10uM” value turn out when `C#CCOCCOCCOCCNc1nc(N2CCN(C(=O)[C@H]([C@@H](C)CC)n3cc([C@@H](N)CC(C)C)nn3)CC2)nc(N2CCN(C(=O)[C@H](Cc3ccc(O)cc3)n3cc([C@@H](N)CC(C)C)nn3)CC2)n1.Cl` was run?
Answer: 9.08%

Question: For `COC(=O)c1ccccc1NC(=O)CN(c1ccc(C)cc1)S(C)(=O)=O`, which “hERG current change (%, negative = inhibition) at 10uM” value is on record?
Answer: -20.7%

Question: Which “hERG current change (%, negative = inhibition) at 10uM” value does the source give for `O=C(Cc1ccccc1)Nc1ccc2c(c1)OC1(CCCC1)O2` here?
Answer: -17.7%

Question: With `Cc1cc(C)c(OCC(=O)Nc2ccccc2N2CCOCC2)c(C)c1` as the molecule, how does the “hERG current change (%, negative = inhibition) at 10uM” value read?
Answer: 15.1%

Question: With `Cc1ccc(S(=O)(=O)CCC(=O)Nc2ccccc2Cl)cc1` as the molecule, how does the “hERG current change (%, negative = inhibition) at 10uM” value read?
Answer: 4.18%

Question: With `CCOC(=O)c1c(C)[nH]c(C)c1S(=O)(=O)N(C)CC(=O)Nc1cc(C)ccc1OC` as the molecule, how does the “hERG current change (%, negative = inhibition) at 10uM” value read?
Answer: -24.7%

Question: Which “hERG current change (%, negative = inhibition) at 10uM” value does the source give for `CC(C)(C)OC(=O)[C@H](Cc1ccccc1)NC(=O)c1nc[nH]c1C(=O)NCCCCC[NH3+].[Cl-]` here?
Answer: 8.32%

Question: `COc1ccc(-n2c(=S)[nH]c3cc(C(=O)O)ccc3c2=O)cc1` was tested. Which “hERG current change (%, negative = inhibition) at 10uM” value did it give?
Answer: 16.3%

Question: How did the “hERG current change (%, negative = inhibition) at 10uM” value turn out when `Cn1c(SCC(=O)Nc2ccccc2[N+](=O)[O-])nnc1C(F)(F)F` was run?
Answer: -3.31%

Question: How did the “hERG current change (%, negative = inhibition) at 10uM” value turn out when `CCCCN1C(=O)NC(NS(=O)(=O)c2ccc(N)cc2)(C(F)(F)F)C1=O` (centres unmarked) was run?
Answer: 5.23%

Question: How did the “hERG current change (%, negative = inhibition) at 10uM” value turn out when `CC(C)c1ccc(NC(=O)C(c2ccc3c(c2)OCO3)N2CCCCC2)cc1` (centres unmarked) was run?
Answer: -22.6%

Question: `O=C1c2cccnc2C(=O)N1c1cccc(-c2nc3ccccc3o2)c1` was tested. Which “hERG current change (%, negative = inhibition) at 10uM” value did it give?
Answer: -0.88%

Question: With `COc1ccc(N2CCN(S(=O)(=O)c3ccc(OC)c(C(=O)N4CCCCC4)c3)CC2)cc1` as the molecule, how does the “hERG current change (%, negative = inhibition) at 10uM” value read?
Answer: -12%

Question: `CCc1nc2ccccc2c(=O)n1NC(=O)c1c(O)c2ccccc2[nH]c1=O` was tested. Which “hERG current change (%, negative = inhibition) at 10uM” value did it give?
Answer: -1.8%

Question: For `CC(C)C[C@@H](CO)N1CCN(Cc2cccc(C#N)c2)CCC1=O`, which “hERG current change (%, negative = inhibition) at 10uM” value is on record?
Answer: -4.41%

Question: How did the “hERG current change (%, negative = inhibition) at 10uM” value turn out when `COc1ccc(C(=O)NCC(=O)OCC(=O)Nc2sccc2C#N)cc1OC` was run?
Answer: 14.3%

Question: With `COC(=O)C(CC(=O)c1ccc(Cl)cc1)c1ccc(C(C)C)cc1` (centres unmarked) as the molecule, how does the “hERG current change (%, negative = inhibition) at 10uM” value read?
Answer: 5.95%

Question: Which “hERG current change (%, negative = inhibition) at 10uM” value does the source give for `CCOC(=O)c1ccc(N/C=C/C(=O)C(C)(C)C)cc1` here?
Answer: 35%

Question: For `O=C(O)Cn1cc2c(n1)CCCC2`, which “hERG current change (%, negative = inhibition) at 10uM” value is on record?
Answer: 12.4%

Question: `CC1CN(C(=O)C(C)N2CCN(c3cccc(Cl)c3)CC2)CC(C)O1` (centres unmarked) was tested. Which “hERG current change (%, negative = inhibition) at 10uM” value did it give?
Answer: 10.1%
